# The list shows a part of the results.
# System: PF3D7_0420300 AP2 domain 1 (GST-tagged)
# Assay: gcPBM binding intensity (ln(normalized median fluorescence intensity)); higher = stronger DNA binding
# Summary of the method: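 Binding intensity values are the highest Masliner-normalised natural-log median intensity among replicate spots of either probe orientation. The binding step lasted 1 h in 1× PBS with 1% milk, 0.2 mg/ml BSA, 0.5% salmon testes DNA and 0.03% Triton X-100, using GST-tagged P. falciparum DNA-binding domains expressed in E. coli on an Agilent 4 × 180k array of primer-extended double-stranded 36-bp intergenic genomic probes plus negative controls. Alexa488 anti-GST antibody and a 488 nm scan detected bound protein.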
row,Sequence,gcPBM binding intensity (ln)
1,TAATAATAGTACTGACATCAAAATCTTATTAAAAAT [GTGCAC_negctrl_site308],9.16
2,TTCTTTTTTATTTTTCAACACACATAATAAATTTCT [CACACA_site8253],9.57
3,TTCGTAATTTATATCACACACATATATATATAATAA [CACACA_site3115],9.51
4,TACCCTTGCATGTAGGTGCAATTTTTTTTTTTTTTT,9.3
5,CAACTTTATACATATAGTACAAGTTATATTTTATTA [XGTACX_site6651],9.08
6,AACGATTTACATCACTGTACTAATGATATACCTCAT [XGTACX_site7463],9.38
7,TATATATATATATATTGTACTATATAGTATCTTTTT [XGTACX_site1646],9.38
8,TATATATTTTCTTTTGCACACTGTTTTCCTTTTTTT [CACACA_site2739],9.72
9,TTACTATAAAATGTCACACATTCTGTTTCCTTACTT [CACACA_site5714],9.3
10,ATTTTTTCTCATAAAAACGTGAACGTTTATTTTACA [CACACA_negctrl_site1041],9.11
11,TATAAATATCTGTATGCACACATTTTTTTTGGAAAA [CACACA_site4734],9.2
12,TCAACAAAATTGAAGGAACACACATACATATATATA [CACACA_site7940],9.65
13,AGCACATAAATAATTAAACACACATTGTTCTAGACA [CACACA_site8746],9.52
14,TTATACATATTTATATGTACGTAATATAATATTAAT [XGTACX_site6520],9.12
15,TTATAATTTTTCTATTGTACATTTAATAATATATAT [XGTACX_site7326],9.22
16,ATGAAGAAATAAATGTGTACATATCTTAGTATCATA [XGTACX_site8658],9.36
17,TATTTAATTTATACACGTACATATATAAATAATACA [XGTACX_site1148],9.21
18,TATAATGATGATGATAGTACGTATTAGTATAAAAAA [XGTACX_site9],9.33
19,TCATGGGTGTATTTCACACACGGATAATCATTTATA [CACACA_site4663],9.29
20,ATATTTTTTTTTGTTACACACGTTTTTTAAAAAATG [CACACA_site1603],9.6
21,TCATAAAAATAAAAATGTACACATTAGAAATATTGT [XGTACX_site3671],9.23
22,AGAAATAAAAAAAAAAATATATATATTATATATATA [CACACA_negctrl_site1799],8.87

row,Sequence,gcPBM binding intensity (ln)
1,GCAAGTCCATGAACGGTGCAGGAATTAACAAAAATA,8.99
2,AATAAAAATAAAAGCACACATAAATATATATATATT [CACACA_site1441],9.7
3,TCATGGCCATTTTCAGTGCATATGTGTATTTAATAT [GTGCAC_site9529],9.35
4,AAAAAAATACATACGTGTACCCACATATATGTATCT [XGTACX_site5319],9.19
5,GTTTCTACTTATATAACAGGACACGTGTGAATAATT [TGCATGCA_negctrl_site430],9.42
6,ACAATTGCATCTATCACACATACATACATACATACA [CACACA_site5063],9.71
7,TTGAAGGTGGCAATGTGTACATAGAATAACCAGTGC [XGTACX_site4738],9.58
8,AAAAAAAAAAAACATTGTACGCACATTTTATATGTC [XGTACX_site6974],9.24
9,AATAGAGTTGAATGCACACATACAAATTTTTAGTTT [CACACA_site3564],9.33
10,TATATATATTTTATGTGTACTCAATGTTATAACGCA [XGTACX_site8360],9.09
11,TGCATAATTAAAAATGGTACACTGTATTTATAATAT [XGTACX_site1575],9.22
12,TATAAATTAAGATAACGTACATATAATAATATAAAC [XGTACX_site487],9.66
13,TGTACACCCAGAAATGCACACACATATATATATATA [CACACA_site8716],9.7
14,TGTACAGTATATACAACACACATTTGTATAAATATA [CACACA_site1002],9.52
15,ACAAAAAAAAAAAAAAAAAAAAAAAAAAAATAATAA [CACACA_negctrl_site1640],8.96
16,AAAATATATTAAGGCACACACATACATATTTATATA [CACACA_site7707],9.83
17,AGATCAATAATGACAAGTACACAAAATAACATTTAA [XGTACX_site6968],9.44
18,ATTTTGTAAAAGGTCATACACACATATTCAAAAGAA [CACACA_site2946],9.53
19,CGCACCCACAGACACACACACACATATATATATATA [CACACA_site2202],10.2
20,AATATATATTAAATATGTACTTATTTTTTGGTTGCT [XGTACX_site3613],9.39
21,AAAGAATAATTAAATACACACATATTACAGTAAAAA [CACACA_site2450],9.81
22,TACATACAGAAACACACACACACATATATATATATA [CACACA_site2919],10

row,Sequence,gcPBM binding intensity (ln)
1,AATATAAGCAAATACACACACACATATAAATATGTA [CACACA_site7741],10.2
2,TACATATATAAATATGTACACACATATGTATGATCT [CACACA_site9284],9.43
3,AAAAAAATAATATAAATAATGAAAAGATATAAATAA [GTGCAC_negctrl_site432],9.4
4,TTATTATATAAAGTTTCACACATTATTTGTTCAAAC [CACACA_site5218],9.13
5,ATATGAAGTATCGAATTAAGGGCAACAAATAAATTA [CACACA_negctrl_site1116],9.29
6,TTATATATGACTAACGGTTTTTTTTTTTTTTTTTTT [CACACA_negctrl_site576],9.17
7,ATTGAGAGAAAAAAATGTACTTGATCAAAATGGATA [XGTACX_site1649],9.22
8,TAATATCAATTTTTATGTACTTATATATATATATAT [XGTACX_site5879],9.31
9,AGTAGTCTGGAGAAGAGTACACAGTATCTGGTAACA [XGTACX_site2032],9.12
10,GTGTATATATGTTATACACACAAAAATATTTTGTAT [CACACA_site265],9.53
11,AAAAATCATATAGGTTGTACGGGTAGTTTATTTTAT [XGTACX_site6936],9.59
12,ATTTATTAACCATATACACACATATATTTGTATTTA [CACACA_site6744],9.69
13,ATAGTATCTGGTAGCTGTACGAGTCGTAGAGTGCAG [XGTACX_site2020],9.27
14,TTCCCTAATATTTGTTGTACTTGTTATATTTTTTTT [XGTACX_site5994],9.86
15,TATATTTGTAAGAAGAGTACTAAAAAAAGAATAAAG [XGTACX_site8704],9.34
16,ATATATATATATATATGTACGTACTCAGTTATGCCT [XGTACX_site453],9.32
17,TGTTCTTATTTTATAAGCATATAATTAATCATAATG [CACACA_negctrl_site1493],9.05
18,ATAAGAAAAGGACACACACACAAAAAAAAAAAAAAA [CACACA_site7351],9.84
19,ATGTATATAATATTATGTACATATATGAAATATTTT [XGTACX_site8168],9.15
20,TTTATTTATTATTGTTGTACACTTTTTATAAAAAAA [XGTACX_site5114],9.12
21,TAGTTTTTTATAAAATTATTTATATAAAGGTAAAAA [CACACA_negctrl_site490],8.7
22,AATATATTATAATATACACACATATATGCTCTTTAA [CACACA_site4131],9.49

row,Sequence,gcPBM binding intensity (ln)
1,ATTTAAAAGAAATAATGTACGAATCATATTTGATAT [XGTACX_site1785],9.19
2,ATATATTATATATATTTTAAGTAATTTGCAAAAAAT [GTGCAC_negctrl_site361],8.93
3,ATATATATATCACGCACACACGAATTTTAAATATAT [CACACA_site5691],9.64
4,TTATTTTTACAATTTTAATAATAATACTAAAACAAA [XGTACX_negctrl_site538],8.76
5,TATTGTATGGTAGGATATGATGTTATTTGTTATAAT [CACACA_negctrl_site202],9.45
6,TCTTTTGCCCAAAAAGGTACACACCACAATTTAAAT [XGTACX_site1482],9.29
7,ATACATATATATATATGTACATATGCACATATATAC [XGTACX_site7209],9.23
8,ATAATATATATATATACGCACACTTATGTACGGATT [CACACA_site2120],9.35
9,AACAATGTTTTCTTGTGTACACATCATTAAAGAAAA [XGTACX_site4726],9.1
10,TTCTATATAATTCAAACATGCACAGGAAATATTATA [TGCATGCA_site290],9.23
11,AAGAAAAAAGGGGACAAGGCATATCTATATATACAT [TGCATGCA_negctrl_site172],9.56
12,TATGTAACACATACTTGTACATATATAATTTTTTTA [XGTACX_site6251],9.22
13,TAAATATTTATAAACACACAAATATTTATATTTATA [CACACA_site6166],9.17
14,AAATAGAGAAATACAAGTACATATCAAACCAATCTA [XGTACX_site2756],9.52
15,AGGGACATATATATCACACACAAAAATTAGTCCCTT [CACACA_site2778],9.67
16,TTTATTTATTAATACACACACACACGCCCACAAAAT [CACACA_site6253],10.2
17,CTTATACATAAATTTTGTACACACAAAAAAAAAAAA [XGTACX_site2665],9.39
18,TAAAAATATAGGTATACACACATATAAATATAAATA [CACACA_site7785],9.64
19,GATTTTAAAATAATTACACACTTGATTATGTCCAAA [CACACA_site3491],9.31
20,ATAAATATAAATATATGTACATATATATATATATAT [XGTACX_site7433],9.16
21,TTAAATAATATTAGCCGTACAATTTAAAGATAATAA [XGTACX_site8503],9.13
22,GAAAGGGCAGGAACTATTAATACACTGATCGATAAG [CACACA_negctrl_site1458],9.22

# From the supplement of paper PMC11417369
